Hit rate of the full screen: of about 310,000 compounds, about 14,000 (4.5%) showed an effect of 50% or more. The effect is printed as a negative number. Some of the results follow.
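Further: peak tail current of the secondary pulse compared with the same well before compound.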

For the test, the target named is human ether-à-go-go-related gene (hERG) potassium channel (human, UniProt Q12809). The experiment in a line: primary screen, population patch clamp on CHO cells stably expressing hERG.
human ether-à-go-go-related gene (hERG) potassium channel, sequence (Q12809 whole entry, looked up): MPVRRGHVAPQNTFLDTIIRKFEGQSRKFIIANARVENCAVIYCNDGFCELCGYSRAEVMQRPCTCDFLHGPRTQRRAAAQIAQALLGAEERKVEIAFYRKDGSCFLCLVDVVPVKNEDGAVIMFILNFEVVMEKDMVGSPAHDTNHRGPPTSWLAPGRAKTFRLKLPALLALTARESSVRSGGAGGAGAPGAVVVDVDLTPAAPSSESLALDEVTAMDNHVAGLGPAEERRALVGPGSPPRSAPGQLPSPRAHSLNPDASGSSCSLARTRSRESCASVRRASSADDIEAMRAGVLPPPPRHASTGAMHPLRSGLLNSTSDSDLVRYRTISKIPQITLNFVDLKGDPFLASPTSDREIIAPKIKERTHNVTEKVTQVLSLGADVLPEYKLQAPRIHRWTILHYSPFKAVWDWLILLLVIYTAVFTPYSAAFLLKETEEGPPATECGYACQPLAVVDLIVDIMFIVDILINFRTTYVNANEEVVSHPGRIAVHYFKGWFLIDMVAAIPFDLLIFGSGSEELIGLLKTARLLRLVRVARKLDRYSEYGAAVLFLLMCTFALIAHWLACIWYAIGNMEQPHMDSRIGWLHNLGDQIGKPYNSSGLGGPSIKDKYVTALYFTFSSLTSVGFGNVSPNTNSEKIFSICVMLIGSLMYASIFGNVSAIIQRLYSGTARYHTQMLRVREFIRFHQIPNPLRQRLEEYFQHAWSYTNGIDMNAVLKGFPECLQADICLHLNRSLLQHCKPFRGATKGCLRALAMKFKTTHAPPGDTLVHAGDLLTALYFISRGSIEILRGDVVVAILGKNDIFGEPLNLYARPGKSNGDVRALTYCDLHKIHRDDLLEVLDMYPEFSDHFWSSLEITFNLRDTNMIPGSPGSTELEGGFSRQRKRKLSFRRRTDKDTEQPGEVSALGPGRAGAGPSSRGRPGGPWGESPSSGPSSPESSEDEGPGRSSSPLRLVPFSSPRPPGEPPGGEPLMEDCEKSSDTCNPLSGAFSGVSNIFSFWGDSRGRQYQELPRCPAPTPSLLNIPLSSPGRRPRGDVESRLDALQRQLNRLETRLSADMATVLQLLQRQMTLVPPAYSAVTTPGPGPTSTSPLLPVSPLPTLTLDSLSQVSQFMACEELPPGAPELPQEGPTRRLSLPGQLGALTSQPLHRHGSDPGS
Regarding `OC(COc1ccc(Cl)cc1)CSc1ccccn1` (stereo not drawn), the “hERG current change (%, negative = inhibition) at 10uM” value is recorded as 9.61%.

On to `O=C(C1CCN(C2CCN(CC3CC=CCC3)CC2)CC1)N1CCOCC1` (stereo not drawn), for which the “hERG current change (%, negative = inhibition) at 10uM” value is -4.14%. For the molecule `Cc1ccccc1NS(=O)(=O)c1ccc(C(=O)N2CCC2)cc1`, the “hERG current change (%, negative = inhibition) at 10uM” value stood at 8.65%. The same measure for `Cc1c(Cl)c(C(F)(F)F)nn1CC(=O)NCc1ccccc1`: 27.7%; for `CC(C)CC(=O)CN1C(=O)C2(OCCO2)c2ccccc21`: 13.2%. In the case of `O=C(Nc1ccc(Cl)c(Cl)c1)N(CCCN1CCOCC1)Cc1cccs1` it was -78%; in that of `CCOC(=O)C1CCCN(C(=O)c2cc3c(=O)n4ccccc4nc3s2)C1` (stereo not drawn), -3.69%; in that of `CCC(/C=N/NC(=O)C1COc2ccccc2O1)CC` (stereo not drawn), 1.12%. The same measure for `Cc1csc2nc(CNS(=O)(=O)c3ccc4c(c3)OCCO4)cn12`: 1.54%; for `CCC(C)[C@H](NC(=O)NCc1cccc(OC)c1)C(=O)OC` (stereo partly drawn): -1.03%; for `OC1CCN(c2ncnc3c2nnn3Cc2c(F)cccc2Cl)CC1`: -8.17%. Take `CC(=O)c1nn(-c2ccc(C)cc2)cc1C(=O)c1cccc(Br)c1`: the “hERG current change (%, negative = inhibition) at 10uM” value amounted to 8.58%. With `COc1ccc(C(=O)O/N=C(\N)Cc2ccc(Cl)cc2)cc1OC`, the “hERG current change (%, negative = inhibition) at 10uM” value is recorded as -15.7%. In the case of `CN(CCCC(=O)Nc1ccc(OC(F)F)cc1)S(=O)(=O)c1ccc(F)cc1` it was -71.3%; in that of `Cn1cc(C(=O)c2ccccc2C(=O)O)cc1C(=O)C(Cl)(Cl)Cl`, 15.3%; in that of `COC(=O)c1[nH]c2ccccc2c1NC(=O)/C=C/c1ccc2c(c1)OCO2`, 13.8%. The same measure for `c1ccc(C2[C@H]3CN(CC4CCCCC4)[C@H](c4ccccc4)C34CC2(c2ccccc2)C4)cc1` (stereo partly drawn): 8.82%. The same measure for `COc1cccc(NC(=O)c2ccccc2N2C(=O)C3C4C=CC(C5CC45)C3C2=O)c1` (stereo not drawn): 3.88%; for `CC#CCCC(=O)N1C=Cc2ccccc2C1C#N` (stereo not drawn): -12.3%; for `COc1ccc(C(=O)N2CCC(=O)N(C(CO)Cc3ccccc3)CC2)cc1` (stereo not drawn): -5.81%. Turning to `CC1(c2ccc3c(c2)OCCO3)NC(=O)N(CC(=O)c2ccc[nH]2)C1=O` (stereo not drawn), the “hERG current change (%, negative = inhibition) at 10uM” value worked out at 5.98%.

Consider `O=C(/C=C/c1ccc(Br)cc1)N1CCN(Cc2ccccc2)CC1`, for which the “hERG current change (%, negative = inhibition) at 10uM” value is -16.9%. The same measure for `Cn1cccc1CNC(=S)Nc1cc(F)cc(F)c1`: 6.41%. The same measure for `O=C(CN(C(=O)Cn1nnc(-c2cccs2)n1)c1ccc2c(c1)OCCO2)NCC1CCCO1` (stereo not drawn): -14.7%. Regarding `COc1cccc(CN(C)C(=O)C23CC4CC(CC(NC(C)=O)(C4)C2)C3)c1OC`, the “hERG current change (%, negative = inhibition) at 10uM” value is on record as -2.28%. In the case of `Nc1nn(-c2ccccc2)c(N)c1N=Nc1cccc(F)c1` it was -10.4%; in that of `COC(=O)c1sccc1NC(=O)c1ccc(C(C)C)cc1`, 16.3%; in that of `Cc1csc(SCC(=O)Nc2ccc3c(c2)OCCO3)n1`, 14.7%.

As for `Cc1cccc2nc(-c3cccnc3)c(Nc3ccccc3)n12`, the “hERG current change (%, negative = inhibition) at 10uM” value is on record as -43.1%. The same measure for `CCOc1ccccc1NC(=O)c1ccc(NC(=O)c2ccco2)cc1`: -4.66%. In the case of `CCCOc1ccc(-c2c(C(=O)N/N=C/c3ccsc3)nnn2-c2nonc2N)cc1` it was -15.7%; in that of `O=C(NC(=S)Nc1cc([N+](=O)[O-])ccc1O)C1CC1`, 2.86%. The same measure for `CCCOC(=O)c1c(NC(=O)/C=C/c2cnn(C)c2C)sc(C(=O)OC)c1C`: 11.8%; for `CCN1C(=O)c2cccc3c(S(=O)(=O)Nc4ccc(OC)cc4OC)ccc1c23`: -18.8%. For `COc1ccccc1-n1ccnc(SCC(=O)NCCc2ccccc2)c1=O`, the “hERG current change (%, negative = inhibition) at 10uM” value worked out at 13.9%.

In the case of `Cc1ccc(N2CC(C(=O)NCc3n[nH]c(=O)c4ccccc34)CC2=O)cc1` (stereo not drawn), the “hERG current change (%, negative = inhibition) at 10uM” value is -23.8%.

For `Cc1ccccc1-n1c(C)nc2ccccc2c1=O`, the “hERG current change (%, negative = inhibition) at 10uM” value is 2.01%. `O=c1[nH]c(Cc2ccc(Cl)cc2)nc2ccccc12`: the “hERG current change (%, negative = inhibition) at 10uM” value worked out at 20.3%.

As for `COc1ccc(CN(C)S(=O)(=O)c2c(C)noc2C)cc1OC`, the “hERG current change (%, negative = inhibition) at 10uM” value was 2.92%. In the case of `COc1cccc(NC(=O)c2nn(C)c(C(=O)Nc3cccc(OC)c3)c2[N+](=O)[O-])c1` it was -9.91%; in that of `CCc1cc2cccc(C)c2nc1SCC(=O)Nc1nonc1C`, 13.6%. As for `O=[N+]([O-])c1ccc(Cl)cc1NCCCN1CCOCC1`, the “hERG current change (%, negative = inhibition) at 10uM” value worked out at 0.725%. The same measure for `COc1ccc(-c2noc3c2-c2nc(C4CCCCC4)sc2CC3)cc1`: 7.61%; for `COc1ccc(-c2nc3n(n2)C(c2cccnc2)C(C(N)=O)=C(C)N3)cc1` (stereo not drawn): -17.3%. In the case of `COc1ccc(-c2oc3ncnc(NCCN4CCOCC4)c3c2-c2ccc(OC)cc2)cc1` it was 2.75%; in that of `O=C(NC1CCCCCCC1)c1ccc(CNc2c(N3CCOCC3)c(=O)c2=O)cc1`, -0.985%. The same measure for `O=C(COc1cc(F)ccc1[N+](=O)[O-])Nc1ccc(N2CCOCC2)cc1`: 7.65%.

Consider `CCC(C)(C)NC(=O)C(c1cccc(OC)c1)N(C(=O)c1ccn[nH]1)c1cccc(OC)c1` (stereo not drawn), for which the “hERG current change (%, negative = inhibition) at 10uM” value turned out to be 0.649%. In the case of `O=C(CSc1nnc(COc2ccc(Cl)cc2)o1)N1CCOCC1` it was -10.5%. The same measure for `C=CCOc1ccc(CNC(C)(C)CO)cc1OC.Cl`: 1.65%; for `COCCn1c(=N)c(C(=O)NCCc2ccccc2)cc2c(=O)n3cccc(C)c3nc21`: -82.9%. In the case of `CC(=O)c1c(C)[nH]c(C(=O)N2CC(C)CC(C)C2)c1C` (stereo not drawn) it was 8.66%. With `COc1ccccc1CN1CC(C(=O)NCCN(C)CCc2ccccc2)CCC1=O` (stereo not drawn), the “hERG current change (%, negative = inhibition) at 10uM” value is given as -65.7%. The same measure for `COC(=O)c1[nH]c2ccc(Cl)cc2c1NC(=O)CN1CCc2cc(OC)c(OC)cc2C1`: 5.23%. Take `CCCCOP(=O)(OCCCC)C(O)c1ccc(Br)cc1` (stereo not drawn): the “hERG current change (%, negative = inhibition) at 10uM” value came out at 2.27%.

With `O=C(CSc1ccc([N+](=O)[O-])cn1)Nc1ccc(N2CCOCC2)cc1`, the “hERG current change (%, negative = inhibition) at 10uM” value is 9.17%. In the case of `COc1ccc(N=Nc2cc(C)ccc2O)cc1` it was 0.723%; in that of `CCSc1nnc(CNC(=O)C23CC4CC(CC(C4)C2)C3)n1C1CCCCC1`, 10.6%.

In the case of `CCC1=NN(C(=O)c2ccc([N+](=O)[O-])cc2)C(O)(c2ccccc2)C1` (stereo not drawn), the “hERG current change (%, negative = inhibition) at 10uM” value was found to be 3.73%. The same measure for `COc1ccc(C(=O)NCCN2CCN(C(=O)c3ccc(OC)c(OC)c3)CC2)cc1OC`: 14.5%. On to `CN(C)c1ccc(C(=O)c2ccc(N(C)C)c(N)c2)cc1N`, for which the “hERG current change (%, negative = inhibition) at 10uM” value is recorded as -3.79%. In the case of `CCn1cc(CN2CCN(CC(C)(C)C)C(CCO)C2)c2ccccc21` (stereo not drawn) it was -5.77%; in that of `Cc1ccc(C(=O)/C=C/Nc2ccccc2C(N)=O)o1`, -13.4%; in that of `CC1CC(=O)NN=C1c1ccc(N(C)C)c([N+](=O)[O-])c1` (stereo not drawn), -4.94%. The same measure for `O=C(NCc1ccccc1)C(c1ccncc1)N(C(=O)c1csnn1)c1cccc(F)c1` (stereo not drawn): -3.64%; for `Cc1ccsc1C1CC(=O)NC2=C1C(=O)CC(C)(C)C2` (stereo not drawn): 6.43%. In the case of `Cc1cc(-c2nnc(SCC(=O)Nc3nc(-c4ccc(Cl)cc4)cs3)o2)no1` it was 14.7%.

As for `COc1cccc(NC(=O)[C@@H]2CCCN2C(=O)C2CCN(S(=O)(=O)c3ccc(C)cc3)CC2)c1`, the “hERG current change (%, negative = inhibition) at 10uM” value is listed as -25.2%. The same measure for `O=C(CCNS(=O)(=O)c1ccc2[nH]c(=O)oc2c1)Nc1ccccc1`: 11.7%; for `O=C(C1CCN(S(=O)(=O)c2ccc(Br)cc2)CC1)N1CCOCC1`: -5.07%; for `Cc1ccc(C(=O)Nc2cccc(N(C)S(C)(=O)=O)c2)cc1S(=O)(=O)Nc1ccccc1`: -2.07%. In the case of `CCSC1=NSC2=NC(=O)/C(=C\c3coc4ccccc4c3=O)C(=N)N12` it was 1.4%; in that of `Cc1ccccc1C(=O)NCC(=O)O`, 20.6%.

Regarding `O=C(c1ccc2ccccc2c1)N1CCc2ccccc21`, the “hERG current change (%, negative = inhibition) at 10uM” value came out at 3.51%. As for `CC(C)(C)n1nnnc1C(c1cccnc1)N1CCN(c2cccc(C(F)(F)F)c2)CC1.Cl` (stereo not drawn), the “hERG current change (%, negative = inhibition) at 10uM” value is given as -53.3%.

With `Cc1ncc(CO)c(/C=N/NC(=S)Nc2ccc(F)cc2)c1O`, the “hERG current change (%, negative = inhibition) at 10uM” value is on record as 29.2%. In the case of `O=C1Nc2ccccc2N(O)N1c1ccc(S(=O)(=O)N2CCCCCC2)cc1` it was 1.75%; in that of `CC1CCCCN1S(=O)(=O)c1ccc(C(=O)Nc2ccccc2-c2nc3ccccc3s2)cc1` (stereo not drawn), 8.6%. Consider `C/C(=N\NC(=O)c1c[nH]c2ccccc12)c1ccc2c(c1)OCO2`, for which the “hERG current change (%, negative = inhibition) at 10uM” value came out at 1.64%. Regarding `Cc1ccc(CNC(=O)COc2ccc(C)nc2[N+](=O)[O-])cc1`, the “hERG current change (%, negative = inhibition) at 10uM” value is listed as -43.6%.

As for `Cc1ccc2c(c1)CCCN2C(=O)CCc1nc2ccccc2c(=O)[nH]1`, the “hERG current change (%, negative = inhibition) at 10uM” value is on record as -23.3%.

On to `COc1ccc(NC(=O)N2CCCc3cc(C)ccc32)c(OC)c1`, for which the “hERG current change (%, negative = inhibition) at 10uM” value is recorded as -14.2%. Take `COc1ccc2c(c1)C(NC(C)=O)C(=O)N2CCc1ccccc1` (stereo not drawn): the “hERG current change (%, negative = inhibition) at 10uM” value was 5.5%. In the case of `Cc1ccc(-c2nnc(SCC(=O)Nc3cccc(C(=O)N4CCOCC4)c3)n2C)cc1` it was -17.4%. In the case of `Cc1sc2nc[nH]c(=O)c2c1-c1ccc(Cl)cc1` it was 14.6%; in that of `CCCC(c1nnnn1Cc1ccco1)N1CCC(C(N)=O)CC1.Cl` (stereo not drawn), -11.6%. Take `O=C(O)c1cc(NCc2ccccc2)ccc1N1CCOCC1`: the “hERG current change (%, negative = inhibition) at 10uM” value was determined as 1.3%.
